The list shows a part of the results.

The test system of this test is PfAP2-HC AP2 domain (GST-tagged). Description: gcPBM binding intensity (ln(normalized median fluorescence intensity)); higher = stronger DNA binding. Summed up: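 GST-fused DNA-binding domains of P. falciparum, expressed in E. coli, were applied at about 25 μg on average for 1 h to an Agilent 4 × 180k array of primer-extended double-stranded 36-bp intergenic genomic probes and negative controls. Binding intensity is the highest Masliner-normalised natural-log median intensity across replicate spots of either probe orientation, measured with Alexa488 anti-GST antibody and a 488 nm scan.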
With “ACAGTATCTGGTAGCTGTACGAGTCGTAGAGAGTAG [XGTACX_site2041]”, the “gcPBM binding intensity (ln)” value stood at 9.76.
As to “ATTCAGTTATATAATACACACATATATTGACATTAT [CACACA_site2723]”, the “gcPBM binding intensity (ln)” value was determined as 9.82.
In the case of “TATTATATTATGTGATGTACATATTTATATAGGCCC [XGTACX_site4746]”, the “gcPBM binding intensity (ln)” value worked out at 9.57.
Turning to “ATTTATTGACTATTTACACACATATTTATTAAAATA [CACACA_site4980]”, the “gcPBM binding intensity (ln)” value came out at 9.75.
For “TACGCTCCCAGACACACACACACACCGATATAATAT [CACACA_site8098]”, the “gcPBM binding intensity (ln)” value turned out to be 10.7.
As to “TATTACATACCTTATTGTACAAATTATATATTAAAG [XGTACX_site7334]”, the “gcPBM binding intensity (ln)” value stood at 9.54.
Consider “TATTATAAAACATTATGTACATATTCTGAAAAATAG [XGTACX_site6577]”, for which the “gcPBM binding intensity (ln)” value was 9.58.
Consider “TATTTCTTATTTATTTTTTAAGGAAATTAAAGATTT [CACACA_negctrl_site258]”, for which the “gcPBM binding intensity (ln)” value was 9.24.
Take “CAAAATAAAAAATTCACACACATATATATATATATA [CACACA_site2088]”: the “gcPBM binding intensity (ln)” value is 10.2.
Turning to “AAAACAAATGCTTAAAGTACTTATTATTTTTCTTTT [XGTACX_site6324]”, the “gcPBM binding intensity (ln)” value is 9.57.
“TTCCTACTATTCAAACGTACAAAATATTTAAATAAT [XGTACX_site700]”: the “gcPBM binding intensity (ln)” value was 9.42.
Next, “TAAAAATATCTGTATACACACATATATATATATATA [CACACA_site6042]”: 9.76; “AAAAAAAAAAAAAAAAGTACAAATCTTTATTTATTA [XGTACX_site3305]”: 9.3; “ATAATATAATATAAAACACACATATGTACCTTCTAA [CACACA_site2761]”: 9.9.
Next, “CAAGTTCAAAATACAAGGAAGAAACAAAACTTGGCG [GTGCAC_negctrl_site600]”: 9.79; “TAATATTTCTTATTTTATATTTGTATATGAATGGAT [XGTACX_negctrl_site278]”: 9.5.
On to “ATATAAATCATTGGTTGTACATATAATATTTTATAA [XGTACX_site925]”, for which the “gcPBM binding intensity (ln)” value was 9.49.
Turning to “TATATATCTATATATTGTACATATGTTTGTATGTGT [XGTACX_site7420]”, the “gcPBM binding intensity (ln)” value came to 10.1.
For “TATTTTTACCCATAAAGTACACATAAATATAAAATA [XGTACX_site177]”, the “gcPBM binding intensity (ln)” value came out at 9.52.
With “TATGATATCTATAATACACACATATACATAAGATCT [CACACA_site6652]”, the “gcPBM binding intensity (ln)” value was found to be 9.73.
For the sequence “TTATATAAAACATTAACACACAAAGAAAAAAAATTA [CACACA_site1793]”, the “gcPBM binding intensity (ln)” value is 9.87.
As for “TTAATATAACTTTTTGCACACTTAATTTTTTTTTTT [CACACA_site3364]”, the “gcPBM binding intensity (ln)” value amounted to 10.
Turning to “GCTCAATGTTTTACATGTACATATATATATATATAT [XGTACX_site8210]”, the “gcPBM binding intensity (ln)” value was found to be 9.83.
Next, “TATATATTAGAAGATAGTACATATATATTTATTAAT [XGTACX_site1011]”: 9.62; “TGGTGATCAAAATATACATGCATATGTTCTGTTATT [TGCATGCA_site614]”: 9.81.
In the case of “TTTTTTCTTTTCTTTTTATTTTATTTTGTTTTATTT [CACACA_negctrl_site799]”, the “gcPBM binding intensity (ln)” value worked out at 9.72.
With “AATAAAAACTACATGTGTACATAATAAATACATATA [XGTACX_site755]”, the “gcPBM binding intensity (ln)” value stood at 9.92.
In the case of “TAAAAATATTTAAACTGTACTATTTTATGTTAAATG [XGTACX_site6620]”, the “gcPBM binding intensity (ln)” value amounted to 9.56.
For the sequence “ATAATCCAAAAAAATCAAATAAAATAAAATAAAATA [CACACA_negctrl_site449]”, the “gcPBM binding intensity (ln)” value is 9.5.
Next, “TGAACCAGATTTAGAAGTACTAAATATTACATACAT [XGTACX_site2437]”: 9.66; “TGTTGCAAAACAAAAAAAAAAAAAAAAAATAATAAT [CACACA_negctrl_site1642]”: 9.52.
For the sequence “CAGAAATATTAATGCTGTACGGAATACATATATTTT [XGTACX_site539]”, the “gcPBM binding intensity (ln)” value came out at 9.62.
On to “ATTTTAATGGGACATGCATGGGACAAACTACAAATT [TGCATGCA_site853]”, for which the “gcPBM binding intensity (ln)” value turned out to be 9.72.
With “AGAATATTTATATGATGTACTTATATATATATATAT [XGTACX_site3021]”, the “gcPBM binding intensity (ln)” value was determined as 9.71.
As to “TATATATTAAAACACACACACATATATATATATATA [CACACA_site3787]”, the “gcPBM binding intensity (ln)” value stood at 10.1.
Regarding “AATTTGTAAAATAAGGTGCGTATAAAAAATTATATT [GTGCAC_site9676]”, the “gcPBM binding intensity (ln)” value stood at 9.79.
Next, “ATAAACATCGGTAGTACACACATTCATGTACTTGAT [CACACA_site3037]”: 9.84.
Turning to “ATTTAATAAAAAAAAAAAATATTGTAGAATATGATG [GTGCAC_negctrl_site195]”, the “gcPBM binding intensity (ln)” value came out at 9.36.
Next, “CAAATGGTAAATGAAAGTACAAATTGTTTTGATTAA [XGTACX_site1536]”: 9.7; “ATATACATATTCTTGTGTACATAAAAATTTATATAT [XGTACX_site8726]”: 9.72.
For the sequence “TATATAAATATTCGTAGTACAATACAATTATAAGTA [XGTACX_site3068]”, the “gcPBM binding intensity (ln)” value turned out to be 9.74.
As for “TTTATAATTTTAAAATGTACAAGGAGGAAAAATTCT [XGTACX_site422]”, the “gcPBM binding intensity (ln)” value amounted to 9.44.
“TTATATTTTATATTTACACACATTTATATTTATAAA [CACACA_site203]”: the “gcPBM binding intensity (ln)” value is 9.62.
Next, “TATATATTTTTTTCAAGTACACATTACAGTTACATA [XGTACX_site2713]”: 9.58; “ATGTTTTCTCTTTCGGTGCATTGTTTTCTATACTTT [GTGCAC_site9483]”: 10.1.

Source of the values: the supplement of paper PMC11417369.
